According to the BET-seq Pho4 binding data (Le et al. 2018):
Some of the results follow. The energies were worked out here from pooled read counts, against the library average; single values are noisy.

molecular target: T1, Pho4 (S. cerevisiae) (UniProt P07270); experiment: relative binding free energy (BET-seq); higher = weaker binding; details: reference: library average
T1 sequence: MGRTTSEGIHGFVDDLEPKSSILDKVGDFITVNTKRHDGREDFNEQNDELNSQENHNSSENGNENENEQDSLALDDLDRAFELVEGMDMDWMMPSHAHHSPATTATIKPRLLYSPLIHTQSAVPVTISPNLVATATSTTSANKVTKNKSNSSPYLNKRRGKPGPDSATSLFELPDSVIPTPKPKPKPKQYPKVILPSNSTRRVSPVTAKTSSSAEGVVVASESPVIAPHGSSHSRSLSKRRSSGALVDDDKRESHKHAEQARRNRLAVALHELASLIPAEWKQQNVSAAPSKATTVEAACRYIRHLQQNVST

Sequence | relative binding free energy [kcal/mol]
ATAGGCACGTGGATCG | -0.05
GGCTTCACGTGGTTTG | 0.37
TATGGCACGTGTCAGA | -0.03
AATTTCACGTGGGTAG | -0.01
TTTATCACGTGAATCG | 0.4
ACCGGCACGTGTGTGG | -0.09
GGGTACACGTGATATA | 0.11
TAGGTCACGTGGAACT | 0.19
GCAGGCACGTGTTGCG | -0.05
TTGTACACGTGGAATG | 0.08
ATCTGCACGTGGGATA | -0.1
TCTGGCACGTGTCGTT | -0.12
CTATACACGTGTGTTG | -0.1
TGTGGCACGTGTCCTG | -0.18
AGTAACACGTGTGTTG | 0.04
ATAGGCACGTGACGGG | -0.02
GTTATCACGTGAGGGG | 0.33
GAGCGCACGTGGGGGT | -0.27
GGTGTCACGTGCGTAG | 0
CGAGTCACGTGGGCTT | 0
GAGTTCACGTGGATTA | 0.33
CGTTTCACGTGAGAGT | 0.39
CTGGGCACGTGGTTCG | -0.06
AGGGGCACGTGGGTAT | -0.18
TGTGTCACGTGCGAGG | -0.06
TGGAGCACGTGCTTCG | -0.01

Sequence | relative binding free energy [kcal/mol]
AGAGGCACGTGGTTGA | -0.01
AGTGGCACGTGAGTAT | 0.18
TGAGGCACGTGAAAGT | 0.21
CATGTCACGTGGTCAG | 0.07
CTGTGCACGTGTGCTG | -0.02
GGGGGCACGTGATGAA | 0.08
GCGGACACGTGTATTG | 0.15
ATGGGCACGTGCGAAG | -0.08
TCAGTCACGTGGGGGC | 0.02
TTCATCACGTGTGGTT | 0.29
TGAGGCACGTGGATGT | 0.1
GCATGCACGTGTGTTT | 0.08
TATATCACGTGTGGAC | 0.18
GGGTGCACGTGGACTG | 0.05
TTGGTCACGTGTAAGG | 0.26
AAGGGCACGTGAGATG | -0.01
GAGTTCACGTGATCGT | 0.42
TAAGTCACGTGCTTGG | 0.12
CTTAGCACGTGTGAAG | 0.02
TGTTGCACGTGGTGAA | 0.02
AAAGTCACGTGTATAA | 0.17
GGATCCACGTGGATGT | 0.1
TAGAGCACGTGTGGAT | -0.01
TTTGCCACGTGGTCTT | -0.18
AGATGCACGTGTACTG | 0.09
GTTCACACGTGTTTTT | 0.22

Sequence | relative binding free energy [kcal/mol]
GAAGCCACGTGGGGGT | -0.24
GGAAACACGTGTGAGT | 0.01
GTAGACACGTGTCTTG | 0.09
GTTCTCACGTGAATGT | 0.54
TTGTACACGTGAGGGG | 0.39
TAAGGCACGTGGGAAT | -0.22
TAGTTCACGTGTATAT | 0.22
TAAAACACGTGGCGGT | -0.13
TAGACCACGTGGTTTT | 0
GTAAGCACGTGTGCGT | -0.06
TTGTCCACGTGGCGGA | 0
GCCTGCACGTGATGGG | 0.19
CGTTACACGTGCTAGG | 0.08
CTGTTCACGTGGGGAA | 0.13
ATTCTCACGTGTGGTT | 0.22
GGTGCCACGTGTCGGG | 0.04
ATTCGCACGTGGGGAG | -0.02
TGGGACACGTGCTGGA | 0.03
TACCGCACGTGTTGTG | 0
TTGTGCACGTGACTTT | 0.06
TTGGGCACGTGAAAGG | 0.07
TGTGCCACGTGGGCGG | -0.2
TTCGTCACGTGTATCA | 0.13
TTTGCCACGTGGCGTG | -0.16
GGTTGCACGTGGATTG | -0.01
GACTTCACGTGTGAGG | 0.27

Sequence | relative binding free energy [kcal/mol]
GTTCTCACGTGTGAGT | 0.38
GGTGTCACGTGAAGCT | 0.53
AAGCTCACGTGTTGTT | 0.12
TTACACACGTGTAGTG | 0.14
AATGGCACGTGTTATA | -0.08
ATGATCACGTGTTTAG | 0.05
TCATTCACGTGGGTTT | 0.06
TGTACCACGTGTGGAT | 0
CGATGCACGTGGTGGT | -0.16
CTCTGCACGTGGTGGG | -0.02
ATGGTCACGTGTTATC | 0.08
CGGTGCACGTGGTATG | -0.09
CGGAACACGTGATGGT | 0.26
CTGTGCACGTGTAGGC | -0.03
AGACGCACGTGTGTTG | -0.16
TGGGACACGTGGTAAT | 0.06
GAGGACACGTGTTATG | 0.09
AAGTGCACGTGTAGGC | -0.03
TACGACACGTGGGGTG | -0.08
GGGAGCACGTGGCTGA | -0.15
GGCATCACGTGTGCGG | 0.13
AAGATCACGTGCGGGA | 0.24
CGTGGCACGTGTGGGG | -0.11
GTAATCACGTGTAGTG | 0.21
ATGTACACGTGTGGCT | 0.16
AGTGGCACGTGTTGGG | -0.02

Sequence | relative binding free energy [kcal/mol]
TTAGCCACGTGTGGGT | -0.16
TGGTTCACGTGCGGAG | 0.13
GTCAGCACGTGGGGGG | -0.15
ATTGGCACGTGACATG | -0.01
TAGTTCACGTGCGTGA | 0.18
GAAGTCACGTGGGATG | 0.03
GGGAACACGTGGGGAA | 0.09
GTATTCACGTGTAATG | 0.24
TTTCGCACGTGTTTGC | -0.03
GTGTACACGTGGCGTG | 0.07
ATGGTCACGTGTAGCG | 0.15
CGCAGCACGTGGTGGG | -0.3
CGAGGCACGTGGAGCG | -0.09
TCGATCACGTGTAGGT | 0.17
TTTTGCACGTGAAATG | 0.28
TGCTTCACGTGTGAGT | 0.26
TTTTCCACGTGAATAG | 0.34
GTTTTCACGTGGGCAA | 0.32
AGTGACACGTGTCGGG | -0.06
TAGGACACGTGGTTTT | 0.12
TTTGTCACGTGTGATG | 0.23
TGGTTCACGTGTTTGC | 0.2
GGGGTCACGTGAGTAC | 0.4
ACGCTCACGTGGGGGT | 0
TCAGTCACGTGTGCGG | -0.06
GTTGGCACGTGGCTTT | -0.05

Sequence | relative binding free energy [kcal/mol]
GTGAGCACGTGGAATG | 0.15
TGGTTCACGTGTCTCG | 0.23
AACTTCACGTGGATGG | 0.3
TTCTTCACGTGATAAT | 0.35
AGTCGCACGTGATAGT | 0.14
TAATTCACGTGGGAGA | 0.27
CATGTCACGTGGCGTG | -0.06
TGAATCACGTGAGATG | 0.41
GGAGGCACGTGATGAG | 0.04
TGATTCACGTGAATGC | 0.55
CAATACACGTGAGTGT | 0.27
CTATACACGTGTAGGT | 0.04
ATTGACACGTGTCTTG | 0.02
TTGATCACGTGGATGA | 0.26
TAGAACACGTGACTGG | 0.24
TCTTCCACGTGTGTTT | 0.11
CACTTCACGTGTTTTT | 0.17
CAGGTCACGTGGGCAG | 0.08
TGTCTCACGTGCGTTT | 0.22
TAAAACACGTGGGGGG | -0.17
GGTCGCACGTGGAAAG | 0.05
CGTTTCACGTGGGAGT | 0.03
TGCGGCACGTGATCGG | -0.12
GCAGTCACGTGGGTAG | -0.06
TGGTACACGTGGTTTG | 0.04
TCGGTCACGTGCTATT | 0.04

Sequence | relative binding free energy [kcal/mol]
GGTATCACGTGGCGGA | 0.03
TGGAACACGTGGGTTC | -0.09
TGCGTCACGTGATGTG | 0.14
GAATACACGTGGTGAT | 0.18
TATTACACGTGGTGTG | 0.08
TTAATCACGTGAATTT | 0.3
GATTTCACGTGTATCG | 0.36
TTCAACACGTGTGGGG | 0.09
TCTGGCACGTGCTAGG | -0.14
AGATTCACGTGCGTGA | 0.26
TTTAGCACGTGGTGAG | -0.08
TAACGCACGTGGTTAT | -0.18
GGGTGCACGTGTTTAT | 0.04
CGTAACACGTGTTGGG | -0.06
TGTGCCACGTGTGCGT | -0.06
TGAGACACGTGATAGT | 0
CATGGCACGTGCGGGG | -0.13
GCTTGCACGTGGAGTT | 0.03
GTGGCCACGTGGTAAG | -0.05
GGCGGCACGTGGTAAG | 0
GGGGGCACGTGAGTGG | 0.18
TTGTCCACGTGGCTGG | -0.16
TTGTTCACGTGGGTGA | 0.26
GGTTTCACGTGTGAGA | 0.35
TATAGCACGTGGGGCG | -0.22
CGTGACACGTGGCGTT | 0.04

Sequence | relative binding free energy [kcal/mol]
TATTACACGTGTGATT | 0.2
TTTAGCACGTGGAAAT | 0.06
TTTTTCACGTGGGCCA | 0.16
TTAATCACGTGGCGGG | 0.01
GGGTGCACGTGGTCCT | -0.23
TTAGACACGTGTGAGA | 0.04
ATGATCACGTGGTTAC | 0.29
CAGTGCACGTGAATGG | 0.16
TGAGACACGTGTGTTG | -0.12
TTGGGCACGTGCGTTG | -0.1
AGGTACACGTGGTGAC | 0.02
CGGTGCACGTGTGGAT | 0.02
TATATCACGTGACTTT | 0.18
GCTGACACGTGGGTTA | -0.09
AGCAGCACGTGTGTGG | -0.06
TTCATCACGTGTGTGC | 0.26
GTTATCACGTGGTTTC | 0.1
ATGTGCACGTGCAAGG | -0.21
AGCTGCACGTGAGTGG | 0.09
ATACACACGTGGGGTA | -0.12
TGGAGCACGTGGGGAC | -0.01
ATTAACACGTGGGGTC | -0.22
TGGACCACGTGATGTG | -0.01
AATATCACGTGTGATG | 0.17
TTTGTCACGTGGCAGT | 0.05
GTAAGCACGTGGGGCA | -0.13

Sequence | relative binding free energy [kcal/mol]
ATGGGCACGTGATTTA | -0.05
AAATTCACGTGTTAGA | 0.28
GCGGTCACGTGGGTAT | -0.04
TGTAACACGTGTAGGG | -0.01
AAGAACACGTGCGGGG | 0.05
ATGAACACGTGAATGG | 0.36
AACGTCACGTGTGTGG | 0.11
GTATACACGTGAATGG | 0.26
TCGATCACGTGAATGG | 0.49
TTAAACACGTGTTTGG | -0.01
TATCTCACGTGTAAGT | 0.32
GGGAGCACGTGCCGGG | -0.17
TGATGCACGTGATATA | 0.17
CATTGCACGTGTTTTG | 0.05
TGGCGCACGTGTTAGG | -0.04
TATCACACGTGGGGGT | -0.21
CGCGGCACGTGGCGAG | -0.08
GTAGTCACGTGCGTCT | 0.16
TAATGCACGTGGGGAC | -0.16
GGGCGCACGTGCCTGG | -0.13
TGTTGCACGTGGTAAG | -0.07
GGTTGCACGTGATCTT | 0
